According to the supplement of paper PMC8728848:
The other results are listed elsewhere or left out.

What was measured:
Experiment in all cases: glycan array binding signal (z-score within array); higher = stronger binding
Details in all cases: glycan notation: IUPAC condensed, linker removed
GlcNAc(b1-6)GalNAc = biological target: GlcNAc(b1-6)GalNAc
Procedure, shortened: (§1)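 Glycan array binding is given as a within-array Z-score, which can be read as non-binding when negative. The arrays, 3228 of them, came from the Consortium for Functional Glycomics database and were retained only where the protein sequence was available. Z-scores were averaged across arrays of the same protein sequence at different concentrations or buffers and across linkers.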

GlcNAc3Prop(b1-4)GlcNAc = biological target: GlcNAc3Prop(b1-4)GlcNAc
Procedure, shortened: as §1

Kdn(a2-3)Gal(b1-3)GlcNAc = biological target: Kdn(a2-3)Gal(b1-3)GlcNAc
Procedure, shortened: as §1

Kdn(a2-3)Gal(b1-4)GlcNAc = biological target: Kdn(a2-3)Gal(b1-4)GlcNAc
Procedure, shortened: as §1

[1] = biological target: Man(a1-2)Man(a1-2)Man(a1-3)Man
Procedure, shortened: as §1

[2] = biological target: Man(a1-2)Man(a1-2)Man(a1-6)[Man(a1-3)]Man
Procedure, shortened: as §1

Man(a1-2)Man(a1-3)Man = biological target: Man(a1-2)Man(a1-3)Man
Procedure, shortened: as §1

[3] = biological target: Man(a1-2)Man(a1-3)[Man(a1-2)Man(a1-6)]Man
Procedure, shortened: as §1

[4] = biological target: Man(a1-2)Man(a1-3)[Man(a1-2)Man(a1-6)]Man(a1-6)[Man(a1-2)Man(a1-2)Man(a1-3)]Man
Procedure, shortened: as §1

[5] = biological target: Man(a1-2)Man(a1-3)[Man(a1-2)Man(a1-6)]Man(a1-6)[Man(a1-2)Man(a1-2)Man(a1-3)]Man(b1-4)GlcNAc(b1-4)GlcNAc
Procedure, shortened: as §1

[6] = biological target: Man(a1-2)Man(a1-3)[Man(a1-6)]Man(a1-6)[Man(a1-2)Man(a1-3)]Man(b1-4)GlcNAc(b1-4)GlcNAc
Procedure, shortened: as §1

[7] = biological target: Man(a1-2)Man(a1-6)[Man(a1-3)]Man(a1-6)[Man(a1-2)Man(a1-2)Man(a1-3)]Man
Procedure, shortened: as §1

[8] = biological target: Man(a1-2)Man(a1-6)[Man(a1-3)]Man(a1-6)[Man(a1-2)Man(a1-2)Man(a1-3)]Man(b1-4)GlcNAc(b1-4)GlcNAc
Procedure, shortened: as §1

Man(a1-3)[Man(a1-6)]Man = biological target: Man(a1-3)[Man(a1-6)]Man
Procedure, shortened: as §1

[9] = biological target: Man(a1-3)[Man(a1-6)]Man(a1-6)[Man(a1-2)Man(a1-3)]Man(b1-4)GlcNAc(b1-4)GlcNAc
Procedure, shortened: as §1

[10] = biological target: Man(a1-3)[Man(a1-6)]Man(a1-6)[Man(a1-3)]Man
Procedure, shortened: as §1

[11] = biological target: Man(a1-3)[Man(a1-6)]Man(a1-6)[Man(a1-3)]Man(b1-4)GlcNAc(b1-4)GlcNAc
Procedure, shortened: as §1

[12] = biological target: Man(a1-3)[Man(a1-6)]Man(b1-4)GlcNAc(b1-4)GlcNAc
Procedure, shortened: as §1

Man(a1-6)Man = biological target: Man(a1-6)Man
Procedure, shortened: as §1

Man(b1-4)GlcNAc = biological target: Man(b1-4)GlcNAc
Procedure, shortened: as §1

Neu5Ac(a2-3)Gal = biological target: Neu5Ac(a2-3)Gal
Procedure, shortened: as §1

[13] = biological target: Neu5Ac(a2-3)Gal(b1-3)GalNAc
Procedure, shortened: as §1

[14] = biological target: Neu5Ac(a2-3)Gal(b1-3)GalNAc(b1-3)Gal(a1-4)Gal(b1-4)Glc
Procedure, shortened: as §1

[15] = biological target: Neu5Ac(a2-3)Gal(b1-3)GalNAc(b1-3)Gal(b1-4)GlcNAc
Procedure, shortened: as §1

[16] = biological target: Neu5Ac(a2-3)Gal(b1-3)GalNAc(b1-4)[Neu5Ac(a2-3)]Gal(b1-4)Glc
Procedure, shortened: as §1

[17] = biological target: Neu5Ac(a2-3)Gal(b1-3)GalNAc6S
Procedure, shortened: as §1

[18] = biological target: Neu5Ac(a2-3)Gal(b1-3)GlcNAc
Procedure, shortened: as §1

[19] = biological target: Neu5Ac(a2-3)Gal(b1-3)GlcNAc(b1-3)Gal(b1-3)GlcNAc
Procedure, shortened: as §1

[20] = biological target: Neu5Ac(a2-3)Gal(b1-3)GlcNAc6S
Procedure, shortened: as §1

[21] = biological target: Neu5Ac(a2-3)Gal(b1-3)[Fuc(a1-4)]GlcNAc
Procedure, shortened: as §1

[22] = biological target: Neu5Ac(a2-3)Gal(b1-3)[Fuc(a1-4)]GlcNAc(b1-3)Gal(b1-4)[Fuc(a1-3)]GlcNAc
Procedure, shortened: as §1

[23] = biological target: Neu5Ac(a2-3)Gal(b1-3)[Neu5Ac(a2-3)Gal(b1-4)]GlcNAc
Procedure, shortened: as §1

[24] = biological target: Neu5Ac(a2-3)Gal(b1-3)[Neu5Ac(a2-6)]GalNAc
Procedure, shortened: as §1

Neu5Ac(a2-3)Gal(b1-4)Glc = biological target: Neu5Ac(a2-3)Gal(b1-4)Glc
Procedure, shortened: as §1

[25] = biological target: Neu5Ac(a2-3)Gal(b1-4)GlcNAc
Procedure, shortened: as §1

[26] = biological target: Neu5Ac(a2-3)Gal(b1-4)GlcNAc(b1-2)Man(a1-3)[GlcNAc(b1-2)Man(b1-4)GlcNAc(b1-2)Man(a1-6)]Man(b1-4)GlcNAc(b1-4)GlcNAc
Procedure, shortened: as §1

[27] = biological target: Neu5Ac(a2-3)Gal(b1-4)GlcNAc(b1-2)Man(a1-3)[Neu5Ac(a2-6)Gal(b1-4)GlcNAc(b1-2)Man(a1-6)]Man(b1-4)GlcNAc(b1-4)GlcNAc
Procedure, shortened: as §1

[28] = biological target: Neu5Ac(a2-3)Gal(b1-4)GlcNAc(b1-3)Gal(b1-3)GlcNAc
Procedure, shortened: as §1

[29] = biological target: Neu5Ac(a2-3)Gal(b1-4)GlcNAc(b1-3)Gal(b1-4)GlcNAc
Procedure, shortened: as §1

[30] = biological target: Neu5Ac(a2-3)Gal(b1-4)GlcNAc(b1-3)Gal(b1-4)GlcNAc(b1-3)Gal(b1-4)GlcNAc
Procedure, shortened: as §1

[31] = biological target: Neu5Ac(a2-3)Gal(b1-4)GlcNAc(b1-3)Gal(b1-4)[Fuc(a1-3)]GlcNAc
Procedure, shortened: as §1

[32] = biological target: Neu5Ac(a2-3)Gal(b1-4)GlcNAc(b1-6)[Gal(b1-3)]GalNAc
Procedure, shortened: as §1

[33] = biological target: Neu5Ac(a2-3)Gal(b1-4)GlcNAc(b1-6)[Neu5Ac(a2-3)Gal(b1-3)]GalNAc
Procedure, shortened: as §1

[34] = biological target: Neu5Ac(a2-3)Gal(b1-4)GlcNAc6S
Procedure, shortened: as §1

B1: R410P1E11 (Tachypleus tridentatus), TAL2_TACTR (protein)
chain: MEKGTPPTHDSDNWMGRAKEIGNGGWDQFQFLFFDPNGYLYAVSNDKLYKASPPQSDTDNWIARATEIGSGGWSGFKFLFFHPNGYLYAVRGQRFYKALPPVSNQD
glycan array binding signal (z-score) (GlcNAc(b1-6)GalNAc): -0.469
glycan array binding signal (z-score) (GlcNAc3Prop(b1-4)GlcNAc): -0.254
glycan array binding signal (z-score) (Kdn(a2-3)Gal(b1-3)GlcNAc): -0.101
glycan array binding signal (z-score) (Kdn(a2-3)Gal(b1-4)GlcNAc): -0.331
glycan array binding signal (z-score) [1]: 0.137
glycan array binding signal (z-score) [2]: 0.196
glycan array binding signal (z-score) (Man(a1-2)Man(a1-3)Man): -0.568
glycan array binding signal (z-score) [3]: -0.225
glycan array binding signal (z-score) [4]: -0.751
glycan array binding signal (z-score) [5]: 0.235
glycan array binding signal (z-score) [6]: -0.141
glycan array binding signal (z-score) [7]: 0.394
glycan array binding signal (z-score) [8]: -0.45
glycan array binding signal (z-score) (Man(a1-3)[Man(a1-6)]Man): -0.45
glycan array binding signal (z-score) [9]: 0.246
glycan array binding signal (z-score) [10]: -0.242
glycan array binding signal (z-score) [11]: -0.483
glycan array binding signal (z-score) [12]: -0.269
glycan array binding signal (z-score) (Man(a1-6)Man): -0.669
glycan array binding signal (z-score) (Man(b1-4)GlcNAc): -0.201
glycan array binding signal (z-score) (Neu5Ac(a2-3)Gal): -0.233
glycan array binding signal (z-score) [13]: -0.102
glycan array binding signal (z-score) [14]: -0.045
glycan array binding signal (z-score) [15]: -0.173
glycan array binding signal (z-score) [16]: 0.408
glycan array binding signal (z-score) [17]: -0.515
glycan array binding signal (z-score) [18]: -0.561
glycan array binding signal (z-score) [19]: 0.008
glycan array binding signal (z-score) [20]: 0.536
glycan array binding signal (z-score) [21]: -0.536
glycan array binding signal (z-score) [22]: -0.44
glycan array binding signal (z-score) [23]: -0.077
glycan array binding signal (z-score) [24]: -0.207
glycan array binding signal (z-score) (Neu5Ac(a2-3)Gal(b1-4)Glc): 0.391
glycan array binding signal (z-score) [25]: -0.104
glycan array binding signal (z-score) [26]: 0.572
glycan array binding signal (z-score) [27]: -0.409
glycan array binding signal (z-score) [28]: -0.502
glycan array binding signal (z-score) [29]: -0.147
glycan array binding signal (z-score) [30]: -0.351
glycan array binding signal (z-score) [31]: -0.143
glycan array binding signal (z-score) [32]: -0.507
glycan array binding signal (z-score) [33]: 2.6
glycan array binding signal (z-score) [34]: 0.17
